# Source: PMC13423814
# Molecular target: Coatomer subunit beta (UniProt P53618)
# UniProt P53618, sequence (P53618 whole entry): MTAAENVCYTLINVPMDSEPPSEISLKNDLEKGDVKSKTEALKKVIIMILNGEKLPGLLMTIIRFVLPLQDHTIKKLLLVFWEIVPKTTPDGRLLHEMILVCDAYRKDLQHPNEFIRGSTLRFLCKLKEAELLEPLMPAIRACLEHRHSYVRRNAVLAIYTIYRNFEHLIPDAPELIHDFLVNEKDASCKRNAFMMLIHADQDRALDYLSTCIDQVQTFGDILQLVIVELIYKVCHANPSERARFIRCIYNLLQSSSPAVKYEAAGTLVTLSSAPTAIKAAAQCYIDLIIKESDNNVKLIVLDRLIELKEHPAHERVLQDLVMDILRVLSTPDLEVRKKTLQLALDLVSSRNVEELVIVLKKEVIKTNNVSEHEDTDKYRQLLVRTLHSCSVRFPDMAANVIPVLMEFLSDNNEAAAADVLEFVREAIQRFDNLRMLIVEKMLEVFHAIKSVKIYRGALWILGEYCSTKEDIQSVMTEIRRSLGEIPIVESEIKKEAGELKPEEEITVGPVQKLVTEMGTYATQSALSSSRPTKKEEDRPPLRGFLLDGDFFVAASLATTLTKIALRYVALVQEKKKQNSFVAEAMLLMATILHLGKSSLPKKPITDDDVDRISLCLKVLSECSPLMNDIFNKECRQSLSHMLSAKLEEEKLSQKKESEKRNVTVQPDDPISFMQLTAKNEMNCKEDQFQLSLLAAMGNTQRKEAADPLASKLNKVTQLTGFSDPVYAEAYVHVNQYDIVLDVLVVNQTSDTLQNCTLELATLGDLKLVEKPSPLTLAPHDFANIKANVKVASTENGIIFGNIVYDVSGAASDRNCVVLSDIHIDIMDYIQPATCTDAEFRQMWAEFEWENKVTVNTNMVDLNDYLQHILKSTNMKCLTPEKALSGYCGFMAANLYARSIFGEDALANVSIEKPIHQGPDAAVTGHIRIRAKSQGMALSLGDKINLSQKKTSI
# Alpha-enolase, sequence (chain, as listed by the source): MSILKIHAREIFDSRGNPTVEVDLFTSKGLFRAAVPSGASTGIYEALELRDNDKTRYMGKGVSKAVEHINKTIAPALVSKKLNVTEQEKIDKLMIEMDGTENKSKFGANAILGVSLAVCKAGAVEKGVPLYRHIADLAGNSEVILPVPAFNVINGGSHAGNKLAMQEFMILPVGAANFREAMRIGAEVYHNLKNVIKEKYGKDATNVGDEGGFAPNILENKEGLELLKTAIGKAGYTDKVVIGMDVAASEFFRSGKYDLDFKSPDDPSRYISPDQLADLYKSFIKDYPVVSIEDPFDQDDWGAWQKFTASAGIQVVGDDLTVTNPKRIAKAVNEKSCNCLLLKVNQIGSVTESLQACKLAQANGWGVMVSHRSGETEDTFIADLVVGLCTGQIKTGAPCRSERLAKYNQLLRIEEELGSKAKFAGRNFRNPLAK
substance,measurement,value
Alpha-enolase,listed as a hit,yes
